Here are results for 4 molecules from patent US20220267410A1 (UNIVERSITAT STUTTGART, published 2022).

To fix the notation:
B1: scTNFR2(141)-Fc(Δab) (protein 149) (Fc fusion)
chain: [about 150 residues not given here]GSRTPSDKPVAHVVANPQAEGQLQWLNRRANALLANGVELRDNQLVVPSEGLYLIYSQVLFKGQGCPSTHVLLTHTISRIAVSYQTKVNLLSAIKSPCQRETPEGAEAKPWYEPIYLGGVFQLEKGDRLSAEINRPDYLNFRESGQVYFGIIALGSRTPSDKPVAHVVANPQAEGQLQWLNRRANALLANGVELRDNQLVVPSEGLYLIYSQVLFKGQGCPSTHVLLTHTISRIAVSYQTKVNLLSAIKSPCQRETPEGAEAKPWYEPIYLGGVFQLEKGDRLSAEINRPDYLNFRESGQVYFGIIALGGSGGGGSGGDKTHTCPPCPAPPVAGPSVFLFPPKPKDTLMISRTPEVTCVVVDVSHEDPEVKFNWYVDGVEVHNAKTKPREEQYNSTYRVVSVLTVLHQDWLNGKEYKCKVSNKGLPSSIEKTISKAKGQPREPQVYTLPPSRDELTKNQVSLTCLVKGFYPSDIAVEWESNGQPENNYKTTPPVLDSDGSFFLYSKLTVDKSRWQQGNVFSCSVMHEALHNHYTQKSLSLSPGK
notes: Hexavalent dimer through the Fc(Δab) region; no His tag
B2: scTNFR2(144)-Fc(Δab) (protein 152) (Fc fusion)
chain: [about 150 residues not given here]GGRTPSDKPVAHVVANPQAEGQLQWLNRRANALLANGVELRDNQLVVPSEGLYLIYSQVLFKGQGCPSTHVLLTHTISRIAVSYQTKVNLLSAIKSPCQRETPEGAEAKPWYEPIYLGGVFQLEKGDRLSAEINRPDYLNFRESGQVYFGIIALGGRTPSDKPVAHVVANPQAEGQLQWLNRRANALLANGVELRDNQLVVPSEGLYLIYSQVLFKGQGCPSTHVLLTHTISRIAVSYQTKVNLLSAIKSPCQRETPEGAEAKPWYEPIYLGGVFQLEKGDRLSAEINRPDYLNFRESGQVYFGIIALGGSGGGGSGGDKTHTCPPCPAPPVAGPSVFLFPPKPKDTLMISRTPEVTCVVVDVSHEDPEVKFNWYVDGVEVHNAKTKPREEQYNSTYRVVSVLTVLHQDWLNGKEYKCKVSNKGLPSSIEKTISKAKGQPREPQVYTLPPSRDELTKNQVSLTCLVKGFYPSDIAVEWESNGQPENNYKTTPPVLDSDGSFFLYSKLTVDKSRWQQGNVFSCSVMHEALHNHYTQKSLSLSPGK
notes: Hexavalent dimer through the Fc(Δab) region; no His tag; also called scTNFR2-Fc 152; variant 152
B3: scTNFR2(143)-Fc(Δab) (protein 151) (Fc fusion)
chain: [about 150 residues not given here]GGGPSDKPVAHVVANPQAEGQLQWLNRRANALLANGVELRDNQLVVPSEGLYLIYSQVLFKGQGCPSTHVLLTHTISRIAVSYQTKVNLLSAIKSPCQRETPEGAEAKPWYEPIYLGGVFQLEKGDRLSAEINRPDYLNFRESGQVYFGIIALGGGPSDKPVAHVVANPQAEGQLQWLNRRANALLANGVELRDNQLVVPSEGLYLIYSQVLFKGQGCPSTHVLLTHTISRIAVSYQTKVNLLSAIKSPCQRETPEGAEAKPWYEPIYLGGVFQLEKGDRLSAEINRPDYLNFRESGQVYFGIIALGGSGGGGSGGDKTHTCPPCPAPPVAGPSVFLFPPKPKDTLMISRTPEVTCVVVDVSHEDPEVKFNWYVDGVEVHNAKTKPREEQYNSTYRVVSVLTVLHQDWLNGKEYKCKVSNKGLPSSIEKTISKAKGQPREPQVYTLPPSRDELTKNQVSLTCLVKGFYPSDIAVEWESNGQPENNYKTTPPVLDSDGSFFLYSKLTVDKSRWQQGNVFSCSVMHEALHNHYTQKSLSLSPGK
notes: as for B1
B4: scTNFR2(145)-Fc(Δab) (protein 153) (Fc fusion)
chain: [about 150 residues not given here]GGTPSDKPVAHVVANPQAEGQLQWLNRRANALLANGVELRDNQLVVPSEGLYLIYSQVLFKGQGCPSTHVLLTHTISRIAVSYQTKVNLLSAIKSPCQRETPEGAEAKPWYEPIYLGGVFQLEKGDRLSAEINRPDYLNFRESGQVYFGIIALGGTPSDKPVAHVVANPQAEGQLQWLNRRANALLANGVELRDNQLVVPSEGLYLIYSQVLFKGQGCPSTHVLLTHTISRIAVSYQTKVNLLSAIKSPCQRETPEGAEAKPWYEPIYLGGVFQLEKGDRLSAEINRPDYLNFRESGQVYFGIIALGGSGGGGSGGDKTHTCPPCPAPPVAGPSVFLFPPKPKDTLMISRTPEVTCVVVDVSHEDPEVKFNWYVDGVEVHNAKTKPREEQYNSTYRVVSVLTVLHQDWLNGKEYKCKVSNKGLPSSIEKTISKAKGQPREPQVYTLPPSRDELTKNQVSLTCLVKGFYPSDIAVEWESNGQPENNYKTTPPVLDSDGSFFLYSKLTVDKSRWQQGNVFSCSVMHEALHNHYTQKSLSLSPGK
notes: Hexavalent dimer through the Fc(Δab) region; no His tag; also called scTNFR2-Fc 153; variant 153

The target in the first assay is T1, TNFR2 on Kym-1 cells (UniProt P20333 23-461, limits assumed).
T1 sequence (looked up): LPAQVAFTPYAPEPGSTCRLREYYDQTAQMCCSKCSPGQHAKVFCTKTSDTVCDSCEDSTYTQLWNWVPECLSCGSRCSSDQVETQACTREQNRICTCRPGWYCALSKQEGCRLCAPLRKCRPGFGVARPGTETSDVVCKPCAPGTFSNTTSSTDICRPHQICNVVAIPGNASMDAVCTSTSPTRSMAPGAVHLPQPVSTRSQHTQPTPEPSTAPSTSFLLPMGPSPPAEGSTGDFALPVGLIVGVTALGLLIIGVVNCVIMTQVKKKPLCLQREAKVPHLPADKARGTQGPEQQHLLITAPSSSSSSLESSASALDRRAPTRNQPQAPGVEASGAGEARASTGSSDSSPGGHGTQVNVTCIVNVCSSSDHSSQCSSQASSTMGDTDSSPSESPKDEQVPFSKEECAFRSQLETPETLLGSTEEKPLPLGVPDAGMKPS
As to the kind of experiment: cell-based or functional assay.
Turning to B1, the “EC50 on Kym-1 (cell death, crystal violet), without 80M2” value is 12.6 pM.
Still for that read-out and setting: under B2 stands 8.08 pM; under B3, 24 pM; under B4, 30.4 pM.

The target in a further assay is T2, human TNFR2-Fc (etanercept) (human, UniProt P20333 23-257).
T2 construct: Commercial drug coated on ELISA plates (200 ng/well); also called immobilized TNF-R2; not shown: Fc part of etanercept
T2 sequence (looked up): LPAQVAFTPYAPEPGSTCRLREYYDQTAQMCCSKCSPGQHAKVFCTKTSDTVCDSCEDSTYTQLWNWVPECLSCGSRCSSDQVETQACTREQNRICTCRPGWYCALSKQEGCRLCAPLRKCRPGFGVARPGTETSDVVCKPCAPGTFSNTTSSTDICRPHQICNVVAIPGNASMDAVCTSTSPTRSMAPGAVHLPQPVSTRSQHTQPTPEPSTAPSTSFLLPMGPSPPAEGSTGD
Description: ELISA on coated etanercept. The method, then: The binding of scTNFR2 and the scTNFR2-Fc(Δab) proteins to human TNFR2-Fc (etanercept) was analyzed by ELISA. 96-well ELISA plates were coated with 200 ng/well etanercept in coating buffer (0.1 M sodium carbonate, pH 9.5) overnight at 4° C., blocked with 2% skim milk in PBS (MPBS) and washed with washing buffer PBST (PBS, 0.05 Tween 20). ScTNFR2 and scTNFR2-Fc(Δab) proteins were titrated in duplicates and incubated on the plates for 2 h at room temperature, followed by washing with PBST. Receptor-bound complexes were detected with mouse anti-huTNFα F6C5 (Novus, 1 μg/ml) and goat anti-mouse IgG(Fc)-HRP (Sigma-Aldrich, 1:10,000), followed by extensive washing with PBST each, before incubation with HRP substrate.
In the case of B1, the midpoint of the response, the EC50, lay at 140 pM.
On the same count and under the same terms, under B2 stands 290 pM; under B3, 250 pM; under B4, 180 pM.
